Assay results taken from the antibiotic and cytotoxicity screens of Wong et al. (2023).
This is one part of the list.

The compounds below were run on HepG2 (assay: cytotoxicity call (relative viability < 0.9)). Conditions: 10 µM.
With C[C@H]1CN([C@@H](C)CO)C(=O)Cc2cc(NC(=O)CCCCCC(=O)Nc3ccccc3N)ccc2O[C@H]1CN(C)Cc1ccc(-c2ccccc2)cc1 the cytotoxicity call was “active”.
COc1ccc(S(=O)(=O)N(C)C[C@H]2Oc3ccc(NC(=O)CCN4CCOCC4)cc3CC(=O)N([C@H](C)CO)C[C@H]2C)cc1 was tested, and the cytotoxicity call was “inactive”.
For COc1ccc(S(=O)(=O)Nc2ccc3c(c2)C(=O)N([C@H](C)CO)C[C@H](C)[C@@H](CN(C)Cc2ccc(Cl)c(Cl)c2)O3)cc1, the cytotoxicity call was “inactive”.
For COc1ccc(S(=O)(=O)N(C)C[C@H]2Oc3c(NC(=O)C4CCOCC4)cccc3C(=O)N([C@H](C)CO)C[C@H]2C)cc1, the cytotoxicity call was “inactive”.
In the case of COc1ccc(NC(=O)N(C)C[C@@H]2Oc3ccc(NC(=O)Nc4cccc5ccccc45)cc3C(=O)N([C@@H](C)CO)C[C@H]2C)cc1, the cytotoxicity call is reported as “inactive”.
For C[C@H](O)C#Cc1ccc2c(c1)O[C@H](CN(C)C(=O)c1ccncc1)[C@H](C)CN([C@@H](C)CO)S2(=O)=O, the cytotoxicity call was “inactive”.
In the case of Cc1noc(C)c1NC(=O)Nc1ccc2c(c1)CC(=O)N([C@@H](C)CO)C[C@H](C)[C@@H](CN(C)C(=O)Nc1cccc3ccccc13)O2, the cytotoxicity call is reported as “inactive”.

Each compound was assayed on S. aureus RN4220 (assay: growth inhibition call (relative growth <= 0.2)). Conditions: 50 µM.
N=C(N)NCCN1CCCCCCC1 was tested, and the growth inhibition call was “inactive”.
CCCC#Cc1cnc2c(c1)C(=O)N([C@H](C)CO)C[C@H](C)[C@H](CN(C)S(=O)(=O)c1cccc(OC)c1)O2 was tested, and the growth inhibition call was “inactive”.
C[C@H]1CN([C@@H](C)CO)C(=O)c2cccc(NC(=O)Nc3ccc(C(F)(F)F)cc3)c2O[C@@H]1CN(C)C(=O)Nc1ccc2c(c1)OCO2 was tested, and the growth inhibition call was “inactive”.
CCCN(C)C[C@H]1OCCCC[C@@H](C)Oc2ccc(NC(=O)Nc3ccc(OC)cc3)cc2C(=O)N([C@@H](C)CO)C[C@H]1C was tested, and the growth inhibition call was “inactive”.
With C[C@H]1CCCCO[C@@H](CN(C)CC2CCCCC2)[C@@H](C)CN([C@@H](C)CO)C(=O)c2cc(NC(=O)Nc3ccc4c(c3)OCO4)ccc2O1 the growth inhibition call was “inactive”.
For C[C@@H]1O[C@@H](O[C@@H]2[C@@H](O)[C@H](OCCc3ccc(O)c(O)c3)O[C@H](CO)[C@H]2OC(=O)/C=C/c2ccc(O)c(O)c2)[C@H](O)[C@H](O)[C@H]1O, the growth inhibition call was “inactive”.
C[C@H](CO)N1C[C@H](C)[C@H](CN(C)C(=O)Nc2cccc3ccccc23)OCCCC[C@H](C)Oc2ccc(NC(=O)Nc3ccc(F)cc3)cc2C1=O was tested, and the growth inhibition call was “inactive”.
With C[C@@H]1CN([C@H](C)CO)C(=O)c2c(c3ccccc3n2C)-c2ccccc2CO[C@@H]1CN(C)C(=O)Nc1ccc(-c2ccccc2)cc1 the growth inhibition call was “inactive”.
For C[C@@H]1CCCCO[C@@H](CN(C)Cc2ccc(C(=O)O)cc2)[C@@H](C)CN([C@@H](C)CO)C(=O)c2cc(NC(=O)Cc3ccccc3)ccc2O1, the growth inhibition call was “inactive”.
Cc1cccc2sc(NC(=O)c3ccc(C(C)(C)C)cc3)nc12 was tested, and the growth inhibition call was “inactive”.
For COc1ccc(CN(C)C[C@H]2OCCCC[C@@H](C)Oc3ccc(NC(=O)NC(C)C)cc3C(=O)N([C@@H](C)CO)C[C@@H]2C)cc1, the growth inhibition call was “inactive”.
For Cn1c([C@H]2C=C(C(=O)N[C@H]3c4ccccc4C[C@H]3O)O[C@@H](OCCCCO)C2)cc(=O)n1-c1ccccc1, the growth inhibition call was “inactive”.
Cc1[nH]c2ccccc2c1C(=O)CSc1ccc(Cl)cc1 was tested, and the growth inhibition call was “inactive”.
With Cc1ccccc1S(=O)(=O)N1C[C@@H](O)COC[C@H]2O[C@@H](CC(=O)N3CCC(Cc4ccccc4)CC3)CC[C@@H]21 the growth inhibition call was “inactive”.
In the case of CN(C)CCCNC(=O)C[C@@H]1C=C[C@H](NS(=O)(=O)c2ccccc2)[C@H](CO)O1, the growth inhibition call is reported as “inactive”.
For C[C@@H]1CN([C@H](C)CO)C(=O)c2cccc(NS(=O)(=O)c3ccc(F)cc3)c2O[C@@H]1CN(C)Cc1ccncc1, the growth inhibition call was “inactive”.
C[C@H](CO)N1C[C@H](C)[C@H](CN(C)S(=O)(=O)c2ccccc2)Oc2ncc(-c3ccncc3)cc2C1=O was tested, and the growth inhibition call was “inactive”.
CN(C)C(=O)[C@@H]1[C@@H](CO)[C@@H]2Cn3c(ccc(C4=CCCC4)c3=O)[C@H]1N2S(=O)(=O)c1cn(C)cn1 was tested, and the growth inhibition call was “inactive”.
For C[C@H]1CN([C@@H](C)CO)C(=O)Cc2cc(NC(=O)Cn3cnnn3)ccc2O[C@H]1CN(C)Cc1ccc(C(F)(F)F)cc1, the growth inhibition call was “inactive”.
With C[C@H](CO)N1C[C@H](C)[C@@H](CN(C)S(=O)(=O)c2ccc(F)cc2)Oc2ncc(-c3cccc(C(=O)N(C)C)c3)cc2C1=O the growth inhibition call was “inactive”.
For C[C@H]1CN([C@@H](C)CO)C(=O)c2cc(NC(=O)C3CCCCC3)ccc2O[C@H]1CN(C)C(=O)Nc1cccc2ccccc12, the growth inhibition call was “inactive”.
For CC(=O)N1CCN(c2ncnc3nc[nH]c23)CC1, the growth inhibition call was “inactive”.
For C[C@H](CO)N1C[C@H](C)[C@@H](CN(C)C(=O)Nc2cccc3ccccc23)Oc2c(NC(=O)CCCCCC(=O)Nc3ccccc3N)cccc2C1=O, the growth inhibition call was “inactive”.
For C[C@H](CO)N1C[C@H](C)[C@@H](CN(C)Cc2ccc(C(F)(F)F)cc2)Oc2ccc(NC(=O)NC3CCCCC3)cc2C1=O, the growth inhibition call was “inactive”.
In the case of CCCNC(=O)C[C@H]1CC[C@H]2[C@@H](COc3ccc(NC(=O)c4ccc5c(c4)OCO5)cc3C(=O)N2C)O1, the growth inhibition call is reported as “inactive”.
With Cc1noc(C)c1S(=O)(=O)N(C)C[C@@H]1Oc2ccc(NS(C)(=O)=O)cc2CC(=O)N([C@@H](C)CO)C[C@H]1C the growth inhibition call was “inactive”.
In the case of Nc1nc(=O)c2[nH]c(=O)c(=O)[nH]c2[nH]1, the growth inhibition call is reported as “inactive”.
In the case of [O-][NH2+][O-], the growth inhibition call is reported as “inactive”.
For CC12CCC(CC1=O)C2(C)C (configuration not stated), the growth inhibition call was “inactive”.
Cc1ccc(S(=O)(=O)Nc2ccc3c(c2)CC(=O)N([C@H](C)CO)C[C@@H](C)[C@@H](CN(C)Cc2ccc(C(F)(F)F)cc2)O3)cc1 was tested, and the growth inhibition call was “inactive”.
For NCc1cccc2c1OCCCO2, the growth inhibition call was “inactive”.
With Nc1ccc(Oc2ccccc2)cc1 the growth inhibition call was “inactive”.
For C[C@H](CO)N1C[C@H](C)[C@H](CN(C)CC2CC2)OCCCC[C@H](C)Oc2ccc(NS(=O)(=O)c3cn(C)cn3)cc2C1=O, the growth inhibition call was “inactive”.
With C[C@H]1CN([C@@H](C)CO)C(=O)Cc2cc(NC(=O)CCCCCC(=O)Nc3ccccc3N)ccc2O[C@H]1CN(C)Cc1ccc(-c2ccccc2)cc1 the growth inhibition call was “inactive”.
For COc1ccc(S(=O)(=O)N(C)C[C@H]2Oc3ccc(NC(=O)CCN4CCOCC4)cc3CC(=O)N([C@H](C)CO)C[C@H]2C)cc1, the growth inhibition call was “inactive”.
In the case of COc1ccc(S(=O)(=O)Nc2ccc3c(c2)C(=O)N([C@H](C)CO)C[C@H](C)[C@@H](CN(C)Cc2ccc(Cl)c(Cl)c2)O3)cc1, the growth inhibition call is reported as “inactive”.
COc1ccc(S(=O)(=O)N(C)C[C@H]2Oc3c(NC(=O)C4CCOCC4)cccc3C(=O)N([C@H](C)CO)C[C@H]2C)cc1 was tested, and the growth inhibition call was “inactive”.
For COc1ccc(NC(=O)N(C)C[C@@H]2Oc3ccc(NC(=O)Nc4cccc5ccccc45)cc3C(=O)N([C@@H](C)CO)C[C@H]2C)cc1, the growth inhibition call was “inactive”.
With C[C@H](O)C#Cc1ccc2c(c1)O[C@H](CN(C)C(=O)c1ccncc1)[C@H](C)CN([C@@H](C)CO)S2(=O)=O the growth inhibition call was “inactive”.
With Cc1noc(C)c1NC(=O)Nc1ccc2c(c1)CC(=O)N([C@@H](C)CO)C[C@H](C)[C@@H](CN(C)C(=O)Nc1cccc3ccccc13)O2 the growth inhibition call was “inactive”.
